A collection of fitness landscapes (doi:10.1016/j.celrep.2020.107928)
Over roughly 81,000 sequences, “one-hybrid fitness for binding NBS DNA” has its median near -0.1; the highest 2% begin near 0.36. Some of the results follow.

B1: Caulobacter ParB omega fusion; a variant is named by its letters at X, in order, B8GW30 (parent)
chain: MESVVVGEPGMSEGRRGLGRGLSALLGEVDAAPAQAPGEQLGGSREAPIEILQRNPDQPRRTFREEDLEDLSNSIREKGVLQPILVRPSPDTAGEYQIVAGERAWRAAQRAGLKTVPIMVRELDDLAVLEIGIIENVQRADLNVLEEALSYKVLMEKFERTQENIAQTIGKSXSHVANXMRLLXLPDEVQSYLVSGELTAXHARAIAAAADPVALAKQIIEGGLSVRETEALARKAPNLSAGKSKGGRPPRVKDTDTQALESDLSSVLGLDVSIDHRGSTGTLTITYATLEQLDDLCNRLTRGI

Variants of: B1
Experiment: one-hybrid fitness for binding NBS DNA (the Noc-binding site; scaled: cognate 1, non-cognate 0); higher = stronger binding
Settings: with NBS DNA site
Outline: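 Values were rescaled so that cognate is 1 and non-cognate is 0. Each is a fitness, the log change in a variant's read ratio to wild type from Illumina reads of plasmids before and after selection, with three replicate libraries pooled and variants under 10 reads dropped. Selection of the Caulobacter ParB libraries, four specificity codons randomised, used E. coli USO with a HIS3 reporter, site 19 bp from the promoter, on M9-minus-histidine with 0.1 mM IPTG and 5 mM 3-AT for 48 hours at 37°C.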

Point of comparison: QRTT, “one-hybrid fitness for binding NBS DNA” value 0.759. Against it:
- QMTL — lower, ≤ 0.2
- AFNP — lower, ≤ 0.2
- SSRI — lower, ≤ 0.2
- SRYL — lower, ≤ 0.2
- EQES — lower, ≤ 0.2
- QVRN — lower, ≤ 0.2
- LLSD — lower, ≤ 0.2
- QKPG — lower, ≤ 0.2
- TRPG — lower, ≤ 0.2
- GHSE — lower, ≤ 0.2
- NTMT — lower, ≤ 0.2
- TTRQ — lower, ≤ 0.2
- TTRG — lower, ≤ 0.2
- YIVC — lower, ≤ 0.2
- FGSR — lower, ≤ 0.2
- KRYV — lower, ≤ 0.2
- PGHC — lower, ≤ 0.2
- TLYS — lower, ≤ 0.2
- VEPI — lower, ≤ 0.2
- KPSS — lower, ≤ 0.2
- LDTS — lower, ≤ 0.2
- GWRG — lower, ≤ 0.2
- KRAD — lower, ≤ 0.2
- HCWL — lower, ≤ 0.2
- MGTR — lower, ≤ 0.2
- RLPR — lower, ≤ 0.2
- EQKG — lower, ≤ 0.2
- KAAC — lower, ≤ 0.2
- VRLV — lower, ≤ 0.2
- PQSA — lower, ≤ 0.2
- AGIK — lower, ≤ 0.2
- PNWL — lower, ≤ 0.2
- HHPW — lower, ≤ 0.2
- NQRT — lower, ≤ 0.2
- QMIF — lower, ≤ 0.2
- GQGI — lower, ≤ 0.2
- GKCN — lower, ≤ 0.2
- WIAT — lower, ≤ 0.2
- DFTV — lower, ≤ 0.2
- QQMT — lower, 0.499
- ASDF — lower, ≤ 0.2
- NASF — lower, ≤ 0.2
- LRTI — lower, ≤ 0.2
- ECLR — lower, ≤ 0.2
- RSVS — lower, 0.285
- ALKA — lower, ≤ 0.2
- AQIG — lower, ≤ 0.2
- MMKS — lower, ≤ 0.2
- IPMV — lower, ≤ 0.2
- DKEG — lower, ≤ 0.2
- QPIF — lower, ≤ 0.2
- TVSV — lower, ≤ 0.2
- RTGN — lower, ≤ 0.2
- RGLW — lower, ≤ 0.2
- EYRF — lower, ≤ 0.2
- KVWR — lower, ≤ 0.2
- RIDH — lower, ≤ 0.2
- AFAH — lower, ≤ 0.2
- SPVM — lower, ≤ 0.2
- HPSG — lower, ≤ 0.2
- SRPH — lower, ≤ 0.2
- CRHS — lower, ≤ 0.2
- KAMG — lower, ≤ 0.2
- DHGT — lower, ≤ 0.2
- FSIV — lower, ≤ 0.2
- LWAV — lower, ≤ 0.2
- IWRI — lower, ≤ 0.2
- ASKG — lower, ≤ 0.2
- HQTI — lower, ≤ 0.2
- YRGR — lower, ≤ 0.2
- CSTL — lower, ≤ 0.2
- TTDC — lower, ≤ 0.2
- QKGS — lower, 0.465
- KETG — lower, ≤ 0.2
- YYYT — lower, ≤ 0.2
- IRGM — lower, ≤ 0.2
- NPLN — lower, ≤ 0.2
- RWDP — lower, ≤ 0.2
- QVAG — lower, ≤ 0.2
- DAHT — lower, ≤ 0.2
- LLPE — lower, ≤ 0.2
- NSQW — lower, ≤ 0.2
- KVPG — lower, ≤ 0.2
- CTKM — lower, ≤ 0.2
- WCES — lower, ≤ 0.2
- SLYV — lower, ≤ 0.2
- DPSF — lower, ≤ 0.2
- TCDL — lower, ≤ 0.2
- GITA — lower, ≤ 0.2
- HHAC — lower, ≤ 0.2
- ARCG — lower, ≤ 0.2
- GTTH — lower, ≤ 0.2
- CGVM — lower, ≤ 0.2
- SQYE — lower, ≤ 0.2
- KSRW — lower, ≤ 0.2
- AQLG — lower, ≤ 0.2
- YSPK — lower, ≤ 0.2
- HFRR — lower, ≤ 0.2
- PYNC — lower, ≤ 0.2
- KRNL — lower, ≤ 0.2
- RRRY — higher, 0.798
- WDGA — lower, ≤ 0.2
- DYKA — lower, ≤ 0.2
- ILKG — lower, ≤ 0.2
- RSEK — lower, ≤ 0.2
- KFLW — lower, ≤ 0.2
- RGPF — lower, ≤ 0.2
- PSGY — lower, ≤ 0.2
- MPIP — lower, ≤ 0.2
- LLSS — lower, ≤ 0.2
- HEIG — lower, ≤ 0.2
- RAYS — lower, 0.423
- LTGA — lower, ≤ 0.2
- CQFT — lower, ≤ 0.2
- HKRG — lower, ≤ 0.2
- YNDS — lower, ≤ 0.2
- GYKA — lower, ≤ 0.2
- RQAY — lower, ≤ 0.2
- SDKT — lower, ≤ 0.2
- GAWC — lower, ≤ 0.2
- MVYR — lower, ≤ 0.2
- PNIV — lower, ≤ 0.2
- PPAA — lower, ≤ 0.2
- RFWM — lower, ≤ 0.2
- WQPT — lower, ≤ 0.2
- GGNL — lower, ≤ 0.2
- WHPF — lower, ≤ 0.2
- ENAM — lower, ≤ 0.2
- QRVV — lower, 0.272
- RTWN — lower, ≤ 0.2
- CMKR — lower, ≤ 0.2
- MWFS — lower, ≤ 0.2
- YCKV — lower, ≤ 0.2
- AQVS — lower, ≤ 0.2
- CLYV — lower, ≤ 0.2
- THDK — lower, ≤ 0.2
- LNWW — lower, ≤ 0.2
- HQLR — lower, ≤ 0.2
- RHLI — lower, ≤ 0.2
- SLIS — lower, ≤ 0.2
- LKGT — lower, ≤ 0.2
- QCAI — lower, ≤ 0.2
- EKAM — lower, ≤ 0.2
- KPTF — lower, ≤ 0.2
- QISD — lower, ≤ 0.2
- DDPF — lower, ≤ 0.2
- QERE — lower, ≤ 0.2
- FGYS — lower, ≤ 0.2
- AWNV — lower, ≤ 0.2
- HSEA — lower, ≤ 0.2
- PASV — lower, ≤ 0.2
- QDTI — lower, ≤ 0.2
- MIAR — lower, ≤ 0.2
- LSRS — lower, ≤ 0.2
- AGPE — lower, ≤ 0.2
- NKHI — lower, ≤ 0.2
- GTDA — lower, ≤ 0.2
- IYKG — lower, ≤ 0.2
- GFVS — lower, ≤ 0.2
- DILY — lower, ≤ 0.2
- VARW — lower, ≤ 0.2
- INRS — lower, ≤ 0.2
- WLKC — lower, ≤ 0.2
- RDKT — lower, ≤ 0.2
- APLP — lower, ≤ 0.2
- NTHW — lower, ≤ 0.2
- CQGT — lower, ≤ 0.2
- QTTT — lower, 0.603
- QAAT — lower, 0.401
- RNMF — lower, ≤ 0.2
- SVHC — lower, ≤ 0.2
- LIVG — lower, ≤ 0.2
- MPMI — lower, ≤ 0.2
- KILG — lower, ≤ 0.2
- VFKM — lower, ≤ 0.2
- CLSP — lower, ≤ 0.2
- YTVA — lower, ≤ 0.2
- DRTL — lower, ≤ 0.2
- PDVI — lower, ≤ 0.2
- LPDF — lower, ≤ 0.2
- KGNY — lower, ≤ 0.2
- EDSE — lower, ≤ 0.2
- TPRG — lower, ≤ 0.2
- CYSS — lower, ≤ 0.2
- KIER — lower, ≤ 0.2
- GCTW — lower, ≤ 0.2
- CRRF — lower, ≤ 0.2
- LWLT — lower, ≤ 0.2
- TGRY — lower, ≤ 0.2
- YWDM — lower, ≤ 0.2
- NMSY — lower, ≤ 0.2
- VGLW — lower, ≤ 0.2
- TGWG — lower, ≤ 0.2
- QDFY — lower, ≤ 0.2
- TPDN — lower, ≤ 0.2
- LDDC — lower, ≤ 0.2
- MILL — lower, ≤ 0.2
- LTRD — lower, ≤ 0.2
- TRKR — higher, 0.799
- LNTW — lower, ≤ 0.2
- ISDE — lower, ≤ 0.2
- LFLT — lower, ≤ 0.2
- AIPK — lower, ≤ 0.2
- FKVG — lower, ≤ 0.2
- SSDV — lower, ≤ 0.2
- ISNN — lower, ≤ 0.2
- SRTA — lower, ≤ 0.2
- IAPL — lower, ≤ 0.2
- VKSD — lower, ≤ 0.2
- NMTK — lower, ≤ 0.2
- AMNG — lower, ≤ 0.2
- HGSD — lower, ≤ 0.2
- LKTR — lower, ≤ 0.2
- GMNT — lower, ≤ 0.2
- LNAC — lower, ≤ 0.2
- RFNK — lower, ≤ 0.2
- ECKL — lower, ≤ 0.2
- PPQY — lower, ≤ 0.2
- YIRC — lower, ≤ 0.2
- QKAW — lower, ≤ 0.2
- IIDW — lower, ≤ 0.2
- DRMI — lower, ≤ 0.2
- QRAH — lower, 0.583
- LPLE — lower, ≤ 0.2
- PILR — lower, ≤ 0.2
- WNAR — lower, ≤ 0.2
- LFKR — lower, ≤ 0.2
- QQRG — lower, 0.407
- VMTY — lower, ≤ 0.2
- APFI — lower, ≤ 0.2
- SWLC — lower, ≤ 0.2
- TLET — lower, ≤ 0.2
- EELY — lower, ≤ 0.2
- KNNL — lower, ≤ 0.2
- PALE — lower, ≤ 0.2
- AACN — lower, ≤ 0.2
- SMDM — lower, ≤ 0.2
- SWDL — lower, ≤ 0.2
- LPLS — lower, ≤ 0.2
- LTRW — lower, ≤ 0.2
- YCVR — lower, ≤ 0.2
- QRMT — lower, 0.729
- EKAS — lower, ≤ 0.2
- PKSE — lower, ≤ 0.2
- LDRF — lower, ≤ 0.2
- WQTV — lower, ≤ 0.2
- LWGF — lower, ≤ 0.2
- ASIG — lower, ≤ 0.2
- CITT — lower, ≤ 0.2
- QCQV — lower, ≤ 0.2
- TYSI — lower, ≤ 0.2
- DSNI — lower, ≤ 0.2
- YYTS — lower, ≤ 0.2
- HTGC — lower, ≤ 0.2
- VERS — lower, ≤ 0.2
- TPCC — lower, ≤ 0.2
- KYMV — lower, ≤ 0.2
- FHVK — lower, ≤ 0.2
- LPCV — lower, ≤ 0.2
- CRET — lower, ≤ 0.2
- SEEM — lower, ≤ 0.2
- RTSS — lower, 0.475
- YALK — lower, ≤ 0.2
- CSNK — lower, ≤ 0.2
- QKNN — lower, 0.203
- CLKM — lower, ≤ 0.2
- GSKK — lower, ≤ 0.2
- VFNS — lower, ≤ 0.2
- PRSP — lower, ≤ 0.2
- RPLD — lower, ≤ 0.2
- LTVK — lower, ≤ 0.2
- SKYS — lower, ≤ 0.2
- RWIF — lower, ≤ 0.2
- LLTW — lower, ≤ 0.2
- YYSC — lower, ≤ 0.2
- HLCG — lower, ≤ 0.2
- DGRW — lower, ≤ 0.2
- VCCR — lower, ≤ 0.2
- VTIC — lower, ≤ 0.2
- GGSV — lower, ≤ 0.2
- KAPL — lower, ≤ 0.2
- NGRV — lower, ≤ 0.2
- TAWR — lower, ≤ 0.2
- DVVG — lower, ≤ 0.2
- LMAR — lower, ≤ 0.2
- PNPP — lower, ≤ 0.2
- VGPE — lower, ≤ 0.2
- PPPP — lower, ≤ 0.2
- SGWC — lower, ≤ 0.2
- VAIV — lower, ≤ 0.2
- WRIL — lower, ≤ 0.2
- KTKH — lower, 0.21
- CLQS — lower, ≤ 0.2
- YNIV — lower, ≤ 0.2
- PMKT — lower, ≤ 0.2
- MPHG — lower, ≤ 0.2
- ESLI — lower, ≤ 0.2
- CIDG — lower, ≤ 0.2
- TDMT — lower, ≤ 0.2
- IRHS — lower, ≤ 0.2
- HHAR — lower, ≤ 0.2
- NRIG — lower, ≤ 0.2
- WVPG — lower, ≤ 0.2
- SISA — lower, ≤ 0.2
- SVHN — lower, ≤ 0.2
